Data reported in publication PMC4336329 (PLoS ONE, 2015).
Hit rate of the full screen: of about 310,000 compounds, about 2,200 (0.71%) showed an effect of 50% or more. Effects have a minus sign here. This is one part of the list.

These compounds were tested against human ether-à-go-go-related gene (hERG) potassium channel (human, UniProt Q12809) (assay: primary screen, population patch clamp on CHO cells stably expressing hERG).
Chain of human ether-à-go-go-related gene (hERG) potassium channel (Q12809 whole entry, looked up): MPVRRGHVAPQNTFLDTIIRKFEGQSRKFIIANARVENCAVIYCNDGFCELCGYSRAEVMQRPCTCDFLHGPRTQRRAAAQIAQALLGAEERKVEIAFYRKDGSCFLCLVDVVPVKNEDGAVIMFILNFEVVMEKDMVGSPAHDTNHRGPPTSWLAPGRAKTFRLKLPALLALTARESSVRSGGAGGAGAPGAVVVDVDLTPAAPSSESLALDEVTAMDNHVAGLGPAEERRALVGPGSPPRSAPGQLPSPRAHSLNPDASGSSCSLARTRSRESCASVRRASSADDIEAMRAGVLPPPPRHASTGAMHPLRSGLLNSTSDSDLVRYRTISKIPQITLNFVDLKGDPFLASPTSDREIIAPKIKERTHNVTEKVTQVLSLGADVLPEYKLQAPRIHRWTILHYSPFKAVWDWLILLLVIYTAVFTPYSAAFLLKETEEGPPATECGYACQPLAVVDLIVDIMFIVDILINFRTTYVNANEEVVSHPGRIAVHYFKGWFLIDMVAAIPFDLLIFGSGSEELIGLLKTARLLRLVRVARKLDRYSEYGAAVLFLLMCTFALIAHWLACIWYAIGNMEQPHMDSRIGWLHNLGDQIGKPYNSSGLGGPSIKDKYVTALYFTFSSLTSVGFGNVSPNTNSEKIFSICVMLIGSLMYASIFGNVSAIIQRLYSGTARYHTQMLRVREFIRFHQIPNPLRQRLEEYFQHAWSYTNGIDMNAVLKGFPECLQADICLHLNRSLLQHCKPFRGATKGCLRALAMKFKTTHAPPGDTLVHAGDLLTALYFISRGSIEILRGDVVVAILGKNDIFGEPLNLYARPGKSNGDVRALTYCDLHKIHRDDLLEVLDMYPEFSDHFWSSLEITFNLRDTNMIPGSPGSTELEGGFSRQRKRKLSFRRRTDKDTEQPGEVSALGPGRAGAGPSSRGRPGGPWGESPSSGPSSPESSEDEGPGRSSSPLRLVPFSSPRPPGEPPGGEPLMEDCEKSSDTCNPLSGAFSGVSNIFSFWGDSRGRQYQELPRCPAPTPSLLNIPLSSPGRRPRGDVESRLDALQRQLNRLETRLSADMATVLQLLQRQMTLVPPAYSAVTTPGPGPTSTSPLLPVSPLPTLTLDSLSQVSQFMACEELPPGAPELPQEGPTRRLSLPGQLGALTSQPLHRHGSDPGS

| SMILES | hERG current change (%, negative = inhibition) at 1uM |
| --- | --- |
| O=C(c1cc(=O)[nH]c2ccccc12)N(Cc1nnc(-c2ccccc2Cl)o1)C1CC1 | 9.28% |
| COc1ccccc1NC(=O)NNC(=O)CCc1ccccc1 | 5.08% |
| COc1ccc(N2CCN(C(=O)CN3C(=O)NC(C)(c4ccc5ccccc5c4)C3=O)CC2)cc1 (stereo not shown) | 9.62% |
| COc1ccc(C(CC(=O)O)N2Cc3ccccc3C2=O)cc1 (stereo not shown) | 11.3% |
| COc1ccc(NC(C#N)c2ccc(OC)cc2)cc1 (stereo not shown) | 17.2% |
| CC(=O)Nc1cccc(NC(=O)c2cc(Cl)ccc2Cl)c1 | 11.7% |
| COC(=O)c1[nH]c2ccccc2c1NC(=O)c1c(F)cccc1F | 14.4% |
| COc1cc(/C=C2/SC(=NCc3ccccc3)N(Cc3ccccc3)C2=O)ccc1O | 11.1% |
| CN(C(=O)c1ccc(Oc2ccc([N+](=O)[O-])cc2)cc1)C1CCCCC1 | 7.52% |
| O=C(/C=C/Sc1ccc(C(F)(F)F)cn1)c1ccccc1 | 12.8% |
| O=C(/C=C/c1cccc(Br)c1)Nc1nn[nH]n1 | 11.9% |
| Cc1c(/C=N/NC(=O)CNc2ccccc2)c2ccccn2c1C(=O)c1ccncc1 | 12.8% |
| CCC(=O)c1c[nH]c(C(=O)NCCc2ccccn2)c1 | 9.21% |
| CCC(C)NC(=O)c1cc(-c2ccc3c(c2)OCO3)on1 (stereo not shown) | 11.4% |
| O=C(OCc1ccc([N+](=O)[O-])cc1)C1CCN(S(=O)(=O)c2ccccc2)CC1 | -9.16% |
| CCOC(=O)c1[nH]ncc1CN1CCCC(C(=O)c2cccc3ccccc23)C1 (stereo not shown) | -8.28% |
| Cc1nc2ccc(Br)cc2c(-c2ccccc2)c1C(=O)O | 19.2% |
| CNC(=S)Nc1ccccc1-c1ccccc1 | 3.73% |
| COc1ccc(C(=O)C2CCCN(C(=O)c3cccnc3OC)C2)c(C)c1 (stereo not shown) | 3.09% |
| Fc1ccc(CNCCc2c[nH]c3ccccc23)cc1 | 14.2% |
| Cc1csc(NC(=O)C2CCN(C(=O)c3ccccc3C)CC2)n1 | 19.7% |
| Cc1ccccc1OCc1n[nH]c(=S)n1-c1ccccc1 | 2.04% |

| SMILES | hERG current change (%, negative = inhibition) at 1uM |
| --- | --- |
| COc1ccc(NS(=O)(=O)c2cc(NC(=O)c3ccc(=O)[nH]c3)ccc2N2CCCC2)cc1 | 9.5% |
| O=C(CC1Sc2ccccc2NC1=O)NCc1ccccc1 (stereo not shown) | 7.73% |
| Cc1c(NS(=O)(=O)c2cccc3nsnc23)c(=O)n(-c2ccccc2)n1C | 10.2% |
| COc1ccc(NC(=O)CN(C)S(=O)(=O)c2ccc3c(c2)NC(=O)CS3)cc1 | 4.63% |
| Nn1c(SCc2cn3ccsc3n2)nnc1-c1ccncc1 | 8.08% |
| COc1ccc(OC)c(C2Nc3c(Cl)ccc(C(=O)O)c3C3C=CCC32)c1 (stereo not shown) | 6.06% |
| O=C(Nn1cnnc1)C1CCCN1S(=O)(=O)c1ccc(F)cc1 (stereo not shown) | 12.9% |
| COCCn1c(N)c(Sc2ccccc2)c(=O)[nH]c1=O | 12.5% |
| COc1cccc(CCNCc2c(F)cccc2F)c1.O=C(O)C(=O)O | 0.781% |
| O=c1onc(-c2ccc(Cl)cc2)n1Cc1ccc(F)cc1 | -1.5% |
| COC(=O)CN1C(=S)N(c2ccccc2)C(=O)C1CC(=O)Nc1ccc(Cl)cc1 (stereo not shown) | 6.72% |
| CCOc1ccc(-c2nc(CSCC(=O)NCC3CCCO3)c(C)o2)cc1 (stereo not shown) | 13.9% |
| COc1ccc(C(O)P(=O)(OCC(C)C)OCC(C)C)c(OC)c1 (stereo not shown) | 17.7% |
| O=c1c2ccccc2n2c(-c3cccc(F)c3)nnc2n1Cc1ccccc1 | 15.8% |
| Cc1c(CNC2CCC(C)CC2)c(C(=O)O)c(C)n1Cc1ccccc1 (stereo not shown) | 3.4% |
| Cc1cccc(C)c1OCC(=O)Nn1c(=O)[nH]c2ccccc2c1=O | 11.1% |
| CCn1c(SCC(=O)Nc2nc(-c3ccccc3)cs2)nnc1-c1ccccc1O | 0.762% |
| CCOC(=O)C1=C(C)N(CCCC(=O)O)C(=O)NC1C(CC)CC (stereo not shown) | 15.3% |
| COc1cc(C(=O)NC(=S)Nc2ccc(Cl)cn2)cc(OC)c1OC | 12.2% |
| CCc1ccc(NC(=O)C2=CC(c3ccc(OC)cc3)=NS(=O)(=O)N2C)cc1 | -2.78% |
| O=c1[nH]ncc2c3ccccc3n(Cc3ccccc3F)c12 | 5.16% |
| O=C(COC(=O)/C=C/c1cccc(Cl)c1)NCCc1ccc(Cl)cc1Cl | 11.6% |

| SMILES | hERG current change (%, negative = inhibition) at 1uM |
| --- | --- |
| N#C/C(=C\c1ccc(Sc2ccccc2)o1)c1nc2ccccc2[nH]1 | 9.78% |
| COc1ccc(OC)c(CN2CCC(C(=O)N3CCN(c4ccccc4F)CC3)CC2)c1.O=C(O)C(=O)O | -10.6% |
| CCOC(=O)c1csc(NC(=O)c2cc(OC)c(OC)c(OC)c2)n1 | -1.61% |
| CCCCCCOc1ccc(OCC(O)CN2C(=O)NC(C)(C)C2=O)cc1 (stereo not shown) | 14.4% |
| O=C(NNC(=O)c1ccc(Cl)c(Cl)c1)c1cccnc1 | 5.03% |
| Cc1cccc(OCC(=O)NCCN2CCOCC2)c1 | 2.51% |
| Cn1c(Cc2ccccc2)nnc1SCc1nc2ccccc2c(=O)[nH]1 | 6.64% |
| COc1ccc(S(=O)(=O)N2CCOCC2)cc1NC(=O)c1cc2c(s1)CCCC2 | 11.4% |
| COc1cc(NC2c3ccccc3C(=O)N2Cc2ccccc2)cc(OC)c1OC (stereo not shown) | 5.81% |
| C=CCN(c1ccccc1)S(=O)(=O)c1ccc2c(c1)NC(=O)C(C)S2 (stereo not shown) | 5.69% |
| COc1ccc(Br)cc1C1Nc2ccccc2C(=O)N1NC(=O)c1ccncc1 (stereo not shown) | 1.64% |
| Cc1ccccc1N1CCN(C(=O)C2CCCCC2)CC1 | 13.6% |
| CCOc1ccc(OCCOc2ccc(/C=C/C(=O)O)cc2OCC)cc1 | 5.98% |
| O=C(COc1ccc(Br)cc1Br)NNC(=O)c1cccs1 | 9.74% |
| Cc1ccc(N)c2c1OCCC2=O | 14% |
| CC1(C)CC(=O)C2=C(C1)NC(=O)CC2c1cc(F)ccc1F (stereo not shown) | -1.49% |
| COc1ccc([N+](=O)[O-])cc1NC(=O)c1cccs1 | 13.4% |
| CSCC[C@H](NC(=O)C1CCN(S(=O)(=O)c2ccccc2)CC1)C(=O)NC1CC1 | 13.8% |
| O=C(CSc1nc(-c2ccco2)cc(C(F)(F)F)n1)N1CCN(c2ccc(Cl)cc2)CC1 | 8.68% |
| Cc1ccc(C)c(NC(=O)CSc2c(C)n[nH]c2C)c1 | 14.9% |
| COc1ccc(NS(=O)(=O)c2cccc(C(=O)NNC(=O)NCCCl)c2)cc1 | 12.7% |
| Cc1ccc(NC(=O)C(=O)NCCCN2CCCC2=O)cc1 | -6.56% |

| SMILES | hERG current change (%, negative = inhibition) at 1uM |
| --- | --- |
| CC(NC(=O)c1cc2cc(F)ccc2[nH]1)c1ccccc1 (stereo not shown) | 8.69% |
| Cc1ccc(Oc2c(C(N)=O)cc([N+](=O)[O-])cc2[N+](=O)[O-])cc1 | -0.121% |
| O=C(COC(=O)c1ccc(S(=O)(=O)NCc2ccco2)cc1)NCC1CCCCC1 | 8.83% |
| Cc1cc(=O)oc(C)c1C(=O)NCc1ccc(F)cc1 | 4.86% |
| OCc1cc(Br)ccc1OCc1nc2ccccc2s1 | 15.3% |
| O=C(CN(c1ccc(Cl)cc1)S(=O)(=O)c1ccc(Cl)c([N+](=O)[O-])c1)NCCc1ccc(F)cc1 | 11.6% |
| COc1ccc(NC(=O)CN(C)C(=O)/C=C/c2cn(Cc3ccccc3)nc2-c2cccnc2)cc1 | -4.4% |
| COc1cc([N+](=O)[O-])ccc1NC(=O)CSc1nccn1C | 8.78% |
| CC1CCc2sc(C(=O)N/N=C/c3ccc([N+](=O)[O-])cc3)cc2C1 (stereo not shown) | 8.05% |
| CCC(C)n1nccc1NC(=O)C(C)OC(=O)c1cc2ccccc2[nH]1 (stereo not shown) | -8.48% |
| CCCCC(=O)NC(c1ccco1)c1cc(Cl)c2cccnc2c1O (stereo not shown) | -8.66% |
| CCOC(=O)c1nc(N/N=C/c2ccccc2)sc1Br | 5.05% |
| O=C(c1cc2c(s1)CCC2)N1C(=O)c2ccccc2S1(=O)=O | 21.9% |
| CCC(=O)NNC(=S)NC(=O)c1ccc(C)cc1 | 4.29% |
| COc1ccc(NC(=S)N(CCCN2CCOCC2)Cc2cn(C)c3ccccc23)cc1OC | 3.03% |
| O=C(CNS(=O)(=O)c1ccc(Br)cc1)OCc1cc(=O)n2cc(Br)ccc2n1 | 4.46% |
| CCCOc1ccc(C(=O)NNC(=O)CCNC(=O)c2ccccc2Cl)cc1OC | -8.29% |
| CC(C)C[C@H](NC(=O)c1[nH]cnc1C(=O)N[C@@H](Cc1ccccc1)C(=O)OCc1ccccc1)C(=O)OC(C)(C)C | 7.61% |
| Fc1ccc(COc2ccc(-c3nnco3)cc2)cc1 | 2.24% |
| O=C(CSc1ccccc1)Nc1nnc(C2CC2)s1 | 12.3% |
| CS(=O)(=O)c1ccc(Cl)c(NC(=O)COC(=O)c2cccc(S(=O)(=O)N3CCCCC3)c2)c1 | 4.76% |
| O=C(OCc1ccc([N+](=O)[O-])cc1)C1CC(=O)N(CCc2ccccc2)C1 (stereo not shown) | -56.3% |
